# Assay results taken from patent publication US9144239B2, “Macrocyclic picolinamides as fungicides” (DOW AGROSCIENCES LLC, priority 2012, dated 2015).
# System: Magnaporthe grisea; anamorph: Pyricularia oryzae
# Assay type: in vivo
# Parameters: key: A: 80-100; B: More than 0-Less than 80; C: Not Tested; D: No activity noticed in this bioassay
# Settings: 100 ppm; 1 Day Protectant; rice
smiles,measurement,value
COc1ccnc(C(=O)N[C@H]2COC[C@H](OC)[C@@H](OC)[C@H](C)OC2=O)c1OCOC(C)=O [Compound 65],Disease Control PYRIOR 1 DP,D
